About 6,400 (1.6%) of roughly 410,000 compounds were called active. This list was built around the results that the source calls inconclusive (neither active nor inactive); the mix of calls is not that of the screen. Calls come from the whole dose curve; as a rule, active = well fitted inhibition curve with a large enough effect; inconclusive = small, poorly fitted or top-dose-only effect; inactive = no such curve, though single readings can be large or run the other way. No potency is given beside an inconclusive call; the fits are too rough.
molecular target: Glucagon-like peptide 1 receptor (Homo sapiens) (UniProt P43220); assay: qHTS of GLP-1 Receptor Inverse Agonists (Inhibition Mode); details: HEK293 GLP-1R CRE-luciferase, luminescence, 24 h, GLP-1R form is constitutively active; activity change, negative = inhibition: at 38.3 µM (top of the series) unless noted; note: nearly all actives have a fitted effect of over 55% in size
Procedure, shortened: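 HEK293 cells stably co-expressing a cAMP-responsive luciferase reporter and constitutively active GLP-1R were seeded, incubated 12 h, then exposed to compounds for 24 h at 37 C. Luminescence was read 12 min after detection reagent; inverse agonists lower signal.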
% is set by controls: 0 for no effect and ±100 for the full control effect; potency is the fitted concentration of half-maximal effect; tags give direction and shape of the fitted curve.

UniProt P43220, sequence (P43220 whole entry, looked up): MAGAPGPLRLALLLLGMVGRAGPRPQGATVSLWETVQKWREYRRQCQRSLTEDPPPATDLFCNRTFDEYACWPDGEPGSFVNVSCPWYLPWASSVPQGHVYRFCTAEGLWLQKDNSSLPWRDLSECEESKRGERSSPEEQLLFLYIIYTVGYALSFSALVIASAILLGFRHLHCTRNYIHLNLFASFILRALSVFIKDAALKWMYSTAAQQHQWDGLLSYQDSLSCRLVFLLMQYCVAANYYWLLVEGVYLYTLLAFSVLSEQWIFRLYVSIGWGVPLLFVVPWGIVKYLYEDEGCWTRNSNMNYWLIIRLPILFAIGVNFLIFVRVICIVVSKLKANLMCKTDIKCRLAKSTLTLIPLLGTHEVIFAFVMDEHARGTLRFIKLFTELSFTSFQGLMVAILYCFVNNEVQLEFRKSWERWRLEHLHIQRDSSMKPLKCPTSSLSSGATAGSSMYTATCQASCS

Row | SMILES | Potency | activity change, negative = inhibition
1 | CN(C(=O)c1ccc(-c2ccccc2)cc1)C1CCCCC1 | active: 10 µM | 
2 | COC(=O)c1ccc(-c2nc(CN3CCCN(C(=O)c4ccco4)CC3)c(C)o2)cc1 |  | inactive: 32.3%
3 | Cc1cc(C(=O)Nc2ccc3c(c2)CCC3)ccc1[N+](=O)[O-] | inconclusive [inhibitor, single point] | 
4 | Cc1cc(C)n2ncc(-c3cccc(Br)c3)c2n1 | inconclusive [inhibitor, single point] | 
5 | COc1ccc(CNC(=O)C/C(C)=N/NC(=O)COc2ccc(C)cc2Br)cc1 | inconclusive [inhibitor, single point] | 
6 | COc1ccc([C@H]2C[C@@H](n3cc(-c4ccc(F)cc4)nn3)[C@H](O)CN2Cc2cccs2)cc1 | inconclusive [inhibitor, single point] | 
7 | CC1CCC(NC(=O)c2ccc3c(c2)N(Cc2ccccc2F)C(=O)c2ccccc2S3=O)CC1 (stereo unspecified) |  | inactive: -11.5%
8 | COc1cccc(/C=C2/C(=O)NN(c3ccccc3)C2=O)c1 |  | inconclusive: -83.5% [inhibitor]
9 | COc1ccc2cc(C(C)C(=O)Nc3cccc(S(=O)(=O)N(C)C)c3)ccc2c1 (stereo unspecified) | inconclusive [inhibitor, single point] | 
10 | O=C(Nc1ccc(OC(F)(F)F)cc1)NC1CCC(Oc2ccc(C(=O)O)cc2)CC1 (stereo unspecified) | inconclusive [inhibitor, partial curve, poor fit] | 
11 | O=C(CN1CCSC1=NCc1ccccc1)c1ccccc1 | inconclusive [inhibitor, partial curve, poor fit] | 
12 | CCCn1nnc(NC(=O)c2cccc(OCc3ccccc3)c2)n1 | inconclusive [inhibitor, single point] | 
13 | Cn1cccc1/C=C1\CC(C(C)(C)C)C/C(=C\c2cccn2C)C1=O (stereo unspecified) | inconclusive [inhibitor, full curve, poor fit] | 
14 | Cc1ccc(Cl)cc1N1CCN(S(=O)(=O)c2c(C)noc2C)CC1 | inconclusive [inhibitor, single point] | 
15 | COc1ccc(-n2cc(C(=O)OCc3ccc(F)c(F)c3)c3ccccc3c2=O)cc1 |  | inactive: -5.56%
16 | CN(C)c1ccc(-c2cccc(C3CC=CC4C3C(=O)N(Cc3ccccc3)C4c3ccc4ccccc4c3)c2)cc1 (stereo unspecified) | inconclusive [inhibitor, full curve] | 
17 | FC(F)(F)c1ccc(C2Nc3cccc4cccc(c34)N2)cc1 |  | inactive: -2.8%
18 | CN(c1ccccc1)S(=O)(=O)c1cccc(NC(=O)c2nn(C)c(=O)c3ccccc23)c1 | inconclusive [inhibitor, single point] | 
19 | Cc1ccc2c(c1)C(=O)C(=O)N2Cc1ccc(Br)cc1 | inconclusive [inhibitor, single point] | 
20 | Fc1ccccc1NC(=S)N/N=C/c1ccccc1Br | inconclusive [inhibitor, partial curve, poor fit] | 
21 | CCOC(=O)c1ccc(NC(=O)c2c(NC(C)=O)sc3c2CCC(C)C3)cc1 (stereo unspecified) |  | inactive: 6.18%

Row | SMILES | Potency | activity change, negative = inhibition
22 | COc1ccc(NC(=O)c2cnc3sccn3c2=O)cc1 |  | inactive: 4.02%
23 | CCOC(=O)c1cc2c(=O)n3ccccc3nc2n(Cc2ccco2)c1=NC(=O)c1cccnc1 |  | inactive: 24.1%
24 | COCCNc1nnc(SCC(=O)Nc2sc3c(c2C(=O)c2ccccc2)CCCC3)s1 | inconclusive [inhibitor, single point] | 
25 | COCCOC(=O)c1c(C)n(S(=O)(=O)c2ccc(C)cc2)c2ccc(NS(=O)(=O)c3ccc(C)cc3)cc12 |  | inactive: -19.6%
26 | O=C(NC1CCCC1)c1cc(-c2cccc(Cl)c2)on1 | inconclusive [inhibitor, single point] | 
27 | COc1ccc(OC)c(Cc2nnc(CCC(=O)NC3C4CC5CC(C4)CC3C5)o2)c1 (stereo unspecified) | inconclusive [inhibitor, partial curve, poor fit] | 
28 | COc1cccc(CNC2CCCC2)c1 | inconclusive [inhibitor, single point] | 
29 | CCOc1cc(C2NN=C(c3ccc(C)cc3)S2)ccc1O (stereo unspecified) |  | inactive: 0%
30 | N#C/C(=C/c1ccc(N2CCCCC2)o1)C(=O)NCCc1c[nH]c2ccccc12 | inconclusive [inhibitor, partial curve] | 
31 | Cc1nn(CCCC(=O)Nc2ccc(Br)cc2F)c(C)c1[N+](=O)[O-] | inconclusive [inhibitor, single point] | 
32 | Cn1c(CNc2nc(-c3ccccc3)cs2)nnc1SCC(=O)N1CCc2ccccc21 | inconclusive [inhibitor, partial curve, poor fit] | 
33 | N#CC1=C(SCC(=O)c2ccc(Cl)cc2)NC2=C(C(=O)CCC2)C1c1ccco1 (stereo unspecified) | inconclusive [inhibitor, partial curve, poor fit] | 
34 | Cc1ccc(C(=O)N/N=C2\CCc3ccccc32)c(C)c1 | inconclusive [inhibitor, single point] | 
35 | Cc1cc(C(=O)NNC(=O)Cc2ccc(Cl)c(Cl)c2)c(C)o1 | inconclusive [inhibitor, single point] | 
36 | CCOC(=O)c1[nH]c2c(c1Cc1ccccc1)C(=O)CC(c1ccc(Cl)cc1)C2 (stereo unspecified) | inconclusive [inhibitor, partial curve, poor fit] | 
37 | CCc1ccc(-c2csc(NC(=O)C3=COCCO3)n2)cc1 | inconclusive [inhibitor, single point] | 
38 | COc1ccc(C(=O)NNc2ccccc2)cc1 | inconclusive [inhibitor, full curve, poor fit] | 
39 | O=C(Cc1cccc2ccccc12)Nc1cc(Cl)ccc1C(=O)O | inconclusive [inhibitor, single point] | 
40 | Cc1nn(Cc2ccc(F)cc2)c(C)c1NC(=O)c1cc(CC(C)C)on1 | inconclusive [inhibitor, partial curve] | 
41 | COC(=O)c1scc(-c2ccc(C)cc2)c1S(=O)(=O)Nc1cc(Cl)ccc1C | inconclusive [inhibitor, single point] | 
42 | COc1cc(/C=C/C(=O)c2ccc(NS(=O)(=O)c3ccc(C)cc3)cc2)ccc1OC(F)F | inconclusive [inhibitor, single point] | 

Row | SMILES | Potency | activity change, negative = inhibition
43 | CCOc1ccc(CCN2C(=S)N([C@@H](Cc3ccc(O)cc3)CN3CCC[C@@H]3CN3C(=S)NC[C@@H]3CC(C)C)C[C@@H]2Cc2ccc(O)cc2)cc1 | inconclusive [inhibitor, partial curve, poor fit] | 
44 | CCN(CC)CCN1C(=O)C(O)=C(C(=O)c2cccs2)C1c1ccc(C)o1 (stereo unspecified) |  | inactive: 8%
45 | COc1ccc(-c2noc(CN(C(=O)COc3cc(C)c(Br)c(C)c3)C(C)C)n2)cc1 | inconclusive [inhibitor, single point] | 
46 | COC(=O)C(Cc1cnc(Cl)s1)(C(=O)OC)c1ccc(C(F)(F)F)cc1[N+](=O)[O-] | inconclusive [inhibitor, single point] | 
47 | Cn1c(SCc2ccc(F)cc2)nc2ccc(C(=O)NCc3ccc(Cl)cc3)cc21 | inconclusive [inhibitor, single point] | 
48 | CC1(C)CC2CN(C(=O)Cc3ccccc3)C(C)(C2)C1 (stereo unspecified) | inconclusive [inhibitor, single point] | 
49 | N#Cc1nc(-c2ccccc2Cl)oc1N1CCCCC1 | inconclusive [inhibitor, partial curve, poor fit] | 
50 | CCN(CC)c1ccc(NS(=O)(=O)c2ccc(-c3cnc(C4CC4)o3)cc2)c(C)c1 | inconclusive [inhibitor, partial curve, poor fit] | 
51 | CCOc1ccccc1N1CCN(Cc2cn[nH]c2-c2ccc(F)cc2)CC1 | inconclusive [inhibitor, single point] | 
52 | CCC1CN(C(=O)N2CCC(C(=O)NCCc3ccc(Cl)cc3)CC2)c2ccccc2O1 (stereo unspecified) | inconclusive [inhibitor, single point] | 
53 | c1csc(C(c2nnnn2C2CCCCC2)N2CCCC3(CCCCC3)C2)c1 (stereo unspecified) |  | inactive: 0%
54 | CCCn1c(SCC(=O)N2CCCc3ccccc32)nnc1-c1ccccn1 | inconclusive [inhibitor, partial curve, poor fit] | 
55 | Cc1nn(Cc2ccc(Cl)cc2)c(C)c1NC(=O)C(c1ccccc1)c1ccccc1 | inconclusive [inhibitor, single point] | 
56 | CCCn1c(SCc2nc(-c3ccc(OC)cc3OC)no2)nnc1-c1ccc(Cl)cc1 | inconclusive [inhibitor, single point] | 
57 | CC[C@]12c3[nH]c4ccc(Cl)cc4c3CCN1C(=O)[C@@H](CC(=O)NCC13CC4CC(CC(C4)C1)C3)C[C@@H]2C(=O)N1CCN(C(=O)c2ccco2)CC1 | inconclusive [inhibitor, partial curve, poor fit] | 
58 | COc1ccc(S(=O)(=O)n2nc(C)c(S(=O)(=O)N3CCC(C)CC3)c2C)cc1C |  | inactive: 8.58%
59 | Cc1cc(C(=O)CN2C(=O)NC3(CCCc4sccc43)C2=O)c(C)n1-c1ccc(Cl)cc1 (stereo unspecified) | inconclusive [inhibitor, full curve, poor fit] | 
60 | CCOc1ccc(S(=O)(=O)N2CCN(Cc3ccccc3)CC2)cc1 | inconclusive [inhibitor, single point] | 
61 | O=C(CSc1ccccc1)N1CCCC(N2CCN(c3ccccc3)CC2)C1 (stereo unspecified) | inconclusive [inhibitor, partial curve, poor fit] | 
